In PubChem BioAssay AID686971 (National Center for Advancing Translational Sciences (NCATS), 2013):
In all, about 360,000 compounds went through this assay and about 7,500 (2.1%) were called active. The shares of active, inactive and inconclusive entries below differ from those in the screen. The call rests on the fitted dose curve; in most records, active means well fitted cell-killing curve with a large enough effect; inconclusive means small, poorly fitted or top-dose-only effect, or effect the other way, or another doubt; inactive means no such curve, though single readings can be large or run the other way. No potency is given beside an inconclusive call; the fits are too rough.

Assay: qHTS for induction of synthetic lethality in tumor cells producing 2HG: qHTS for the HT-1080-IDH1KD cell line;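 on activity, negative = toxicity: 0% = DMSO wells and -100% = cell-free medium wells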
Details: HT-1080 IDH1 knockdown viability, ATP luminescence, 48 h; activity, negative = toxicity: at 46.1 µM (top of the series) unless noted
Procedure, shortened: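 Luminescent ATP read-out (CellTiter-Glo, 10 min at room temperature) after 48 h compound exposure at 37 °C gave viability of IDH1-knockdown HT-1080 cells. Activity was normalised to DMSO and cell-free wells, then fitted as concentration-response curves.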
Potency means the concentration at half of the fitted maximal effect; tags describe the fitted curve by direction and shape.

| SMILES | Potency | activity, negative = toxicity |
| --- | --- | --- |
| Cc1nc(-c2c(C(F)(F)F)noc2-c2ccc(O)cc2O)cs1 | inconclusive [cytotoxic, partial curve, poor fit] |  |
| COc1ccc(Cc2nnc(NC(=O)CS(=O)(=O)Cc3ccccc3)s2)cc1 |  | inactive: 8.38% |
| O=C(COc1ccccc1-c1ccccc1)N/N=C/c1ccc2ccccc2c1 | active: 1.16 µM |  |
| CC(C(=O)Nc1cc([N+](=O)[O-])ccc1Cl)N1CCN(c2ccccc2O)CC1 (configuration not stated) | inconclusive [cytotoxic, single point] |  |
| COc1cc(N)c(Cc2nccc3cc(OC)c(OC)cc23)cc1OC |  | inactive: -10.2% |
| CCC(C)c1ccc(NC(=O)C2CCN(c3ccc(C(F)(F)F)cn3)CC2)cc1 (configuration not stated) | inconclusive [cytotoxic, partial curve] |  |
| C1=CCN(Cc2ccccc2)C1 |  | inactive: -0.159% |
| Cc1c(N2C(=O)/C(=C\C3CC=CCC3)SC2=S)c(=O)n(-c2ccccc2)n1C (configuration not stated) | active: 18.4 µM |  |
| COc1ccc(/C=N/N=C2/NC(=O)C(c3ccccc3)(c3ccccc3)S2)cc1 |  | inconclusive: 36.3% |
| Cc1ccc(SCCC(=O)N/N=C/c2ccncc2)cc1 | inconclusive [cytotoxic, single point] |  |
| CCOc1ccc(-n2c(SCC(=O)Nc3ccc(CC)cc3)nc3n[nH]c(C)c3c2=N)cc1 | active: 18.4 µM |  |
| C/C(=N\NC(=O)c1ccc(CSc2cccc3cccnc23)cc1)C1CCCCC1 |  | inactive: -9.65% |
| Cc1nc(-c2ccc(C(=O)Nc3ccccc3F)cc2)cs1 | active: 20.6 µM |  |
| COc1ccc(OC)c(NC(=O)Nc2cccc3ccccc23)c1 |  | inactive: 9.26% |
| CCCO/N=C1/C(=O)N(c2ccccc2)c2ccccc21 |  | inactive: -4.86% |
| O=C(N/N=C/c1ccccn1)c1cc(-c2ccc(Cl)s2)[nH]n1 | inconclusive [cytotoxic, single point] |  |
| O=C(NC(=S)NNC(=O)c1ccco1)c1ccc(Br)cc1 | inconclusive [cytotoxic, single point] |  |
| C=C(C)C1Cc2c(C)nn(-c3cccc4ccccc34)c2C1 (configuration not stated) | inconclusive [cytotoxic, single point] |  |
| COc1cc2ccccc2cc1C(=O)N(CCN(C)C)c1nc2c(C)cccc2s1 | inconclusive [cytotoxic, single point] |  |
| CCc1ccc(OC(C)C(=O)Nc2ccccc2C(=O)N2CCOCC2)cc1 (configuration not stated) |  | inactive: -6.31% |
| CCN(CC)CCNc1ncnc2c1sc1nc(N3CCCC3)c3c(c12)CC(C)(C)OC3 | active: 18.4 µM |  |
| COc1cc(C2(c3ccc(O)c(OC)c3)C(=O)Nc3c(C)cc(Br)cc32)ccc1O | inconclusive [cytotoxic, single point] |  |
| COC(=O)c1c(NC(=O)CSc2nnc(-c3ccco3)n2Cc2ccccc2)sc(C)c1C | inconclusive [cytotoxic, single point] |  |
| COc1ccc(CN(C)C(=O)c2cc(-c3ccccc3)nc3ccc(C)cc23)c(OC)c1 | inconclusive [cytotoxic, single point] |  |

| SMILES | Potency | activity, negative = toxicity |
| --- | --- | --- |
| CCOC(=O)c1c(C)nc2ccc(Cl)cc2c1-c1ccccc1 | inconclusive [cytotoxic, partial curve] |  |
| O=C(N/N=C/c1cccc(O)c1)c1cc(C2CC2)nc2ccccc12 | inconclusive [cytotoxic, single point] |  |
| O=C(Nc1ccc(Br)cc1)c1ccc(N2C(=O)C3CC=C(Cl)CC3C2=O)cc1 (configuration not stated) | inconclusive [cytotoxic, partial curve] |  |
| CC1(C(=O)Nc2ccc(F)c(Cl)c2)Cc2c(-c3ccccc3)ccnc2O1 (configuration not stated) | inconclusive [cytotoxic, single point] |  |
| COc1cccc(-c2nnc(NC(=O)c3ccc4ncsc4c3)o2)c1 | inconclusive [cytotoxic, single point] |  |
| CCCCN(CC)CCCNC(=O)c1cn(CC)c2ccc(S(=O)(=O)N3CCc4ccccc4C3)cc2c1=O |  | inactive: -13.9% |
| C=C1C(=O)C=C2CN(C(=O)c3ccccc3)[C@@](Cc3ccc(F)cc3)(C(=O)OC)[C@@H]12 | active: 5.8 µM |  |
| C(=N\Nc1nc2ccccc2s1)/c1ccc2c(c1)OCO2 | inconclusive [cytotoxic, single point] |  |
| CCCCn1nnnc1C(c1ccccc1OC(F)(F)F)N1CCN(C/C=C/c2ccccc2)CC1 (configuration not stated) | inconclusive [cytotoxic, single point] |  |
| CC(C)(C)OC(=O)N1CCCC(C(=O)Nc2cccc(C(=O)NCCCCc3ccccc3)c2)C1 (configuration not stated) |  | inactive: -14.2% |
| COC(=O)c1ccccc1NC(=O)c1cccc(COc2ccccc2Cl)c1 | inconclusive [cytotoxic, partial curve] |  |
| O=C(OCc1cn([C@H]2C[C@H](c3ccc(Cl)cc3)N(Cc3cccs3)C[C@@H]2O)nn1)c1ccccc1 |  | inactive: -15.4% |
| Cc1ccc(-n2cc(CNCCc3ncc(C)[nH]3)c(-c3ccc(F)cc3)n2)cc1 | active: 20.6 µM |  |
| Cc1ccc(-c2ccccc2NC(=O)CS(=O)CC(=O)Nc2ccc(C)c(Cl)c2)o1 (configuration not stated) | active: 23.1 µM |  |
| CCN(CC)c1ccc(-c2c(C#N)c(N)nc(OC)c2C#N)cc1 | inconclusive [cytotoxic, single point] |  |
| O=C1OCC(CO)(CO)N=C1NNc1ccccc1[N+](=O)[O-] | inconclusive [cytotoxic, single point] |  |
| Cc1cc(C)c2c(CCl)cc(=O)oc2c1 | active: 1.3 µM |  |
| Cc1ccc(-c2noc(C3CCCN(S(=O)(=O)c4ccc(S(=O)(=O)N(C)C)cc4)C3)n2)o1 (configuration not stated) |  | inactive: 7.66% |
| Cn1c(=O)c2c(nc(NCc3ccco3)n2Cc2ccccc2Cl)n(C)c1=O |  | inactive: 6.71% |
| C/C(CC(C)(C)C1CCCCC1)=N\NC(N)=S | inconclusive [cytotoxic, single point] |  |
| CCOC(=O)C1=CCN(S(=O)(=O)c2ccc(F)cc2)C1c1ccc(C)cc1 (configuration not stated) |  | inactive: -0.856% |
| CCn1cc(C(=O)NCc2cccc(F)c2)c(=O)c2cc(F)c(N3CCN(C(=O)c4ccco4)CC3)cc21 | active: 23.1 µM |  |
| CC(c1ccncn1)N(C)C(=O)c1ccc2oc(Cc3ccccc3)nc2c1 (configuration not stated) |  | inactive: 21.2% |
| O=S(=O)(c1ccc(Cl)s1)N1CCN(C/C=C/c2ccccc2)CC1 |  | inactive: -18.8% |

| SMILES | Potency | activity, negative = toxicity |
| --- | --- | --- |
| CC(=O)c1ccc(-n2c(CCC(=O)O)ccc2-c2cccs2)cc1 | inconclusive [cytotoxic, single point] |  |
| O=C(CCn1c(=O)c2ccccc2n(CC(=O)NCCC2=CCCCC2)c1=O)NCc1ccco1 |  | inactive: -0.247% [at 9.24 µM] |
| COc1cccc(OCCOc2c(OC)cccc2OC)c1 |  | inactive: 16.6% |
| COc1ccc(OC)c(-c2cc(C(=O)NCCN3CCOCC3)no2)c1 |  | inactive: -1.13% |
| CCOC(=O)c1c(NC(=O)CSc2nnnn2C)sc(C)c1-c1ccc(C)cc1 | active: 8.91 µM |  |
| CC(=O)C1=C(c2ccccc2)NC(=S)NC1c1cc(Cl)c(OC(C)C)c(Cl)c1 (configuration not stated) | inconclusive [cytotoxic, single point] |  |
| CCCc1cc(=O)[nH]c(SCC(=O)N2CCC(C)CC2)n1 |  | inactive: -1.91% |
| COc1cc(C(c2c(C)[nH][nH]c2=O)c2c(C)[nH][nH]c2=O)ccc1OC(=O)c1cccc([N+](=O)[O-])c1 |  | inactive: 7.03% |
| CC(Nc1nc(N2CCOCC2)nc2ccccc12)c1ccccc1 (configuration not stated) | inconclusive [cytotoxic, single point] |  |
| O=C(O)c1cc2c(N3CCC(Cc4ccccc4)CC3)ncnc2s1 |  | inactive: -6.19% |
| Cc1cc(C)cc(SCc2noc(C(=O)NCCN(C)C)c2C(=O)NCCN(C)C)c1 | inconclusive [cytotoxic, partial curve] |  |
| O=C(CN(C(=O)CSc1nc2ccccc2o1)c1ccccc1F)NC1CCCCC1 |  | inactive: 1.02% |
| COc1cc2[nH]c(=S)nc(NC3CCCCCC3)c2cc1OC | inconclusive [cytotoxic, single point] |  |
| Nc1ncn(-c2ncc(C(F)(F)F)cc2Cl)n1 |  | inactive: -1.25% |
| Cc1ccccc1-c1cc(-c2ccccc2O)n[nH]1 | inconclusive [cytotoxic, single point] |  |
| CC(=O)Nc1ccc(S(=O)(=O)N2CCN=C2SCc2ccc([N+](=O)[O-])cc2)cc1 | inconclusive [cytotoxic, partial curve] |  |
| COc1cc2c3c(c1)C(C)=CC(C)(C)N3C(=O)C2=O | active: 3.26 µM |  |
| COc1ccc(-c2nc3ccccn3c2CN2CCN(c3ccccc3F)CC2)cc1 | inconclusive [cytotoxic, single point] |  |
| COc1cc(C(=O)Nc2ccc3nc(N4CCN(C)CC4)cc(C)c3c2)cc(OC)c1OC | inconclusive [cytotoxic, single point] |  |
| CCCCOCCCNC(=O)C[C@@H]1C[C@@]2(C(=O)OC)CC(C)(C)CC=C2N(Cc2ccco2)C1=O |  | inactive: -3.09% |
| Cc1cc(Br)cn2c(Cc3cccc(F)c3)c(C3CCCCC3)nc12 | inconclusive [cytotoxic, single point] |  |
| Cc1cc(NCCCCCCCNc2cc(C)nc3cc([N+](=O)[O-])ccc23)c2ccc([N+](=O)[O-])cc2n1 | inconclusive [cytotoxic, single point] |  |
| CCc1ccc(C(=O)COC(=O)CNC(=O)c2ccc(N3C(=O)c4ccccc4C3=O)cc2)cc1 | inconclusive [cytotoxic, single point] |  |
| COc1cccc(Cl)c1NC(=O)N1CCN(c2cc(C)nc3ccccc23)CC1 | inconclusive [cytotoxic, single point] |  |
